Measured values as given in PubChem BioAssay (NCI).
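Protocol summary: plate cells (96-well), add compound at 5 concentrations, incubate 48 h, interpolate endpoints linearly. Here, GI50 denotes the concentration required for 50% inhibition of growth.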 Some entries of the source have several records that differ or are many. The list is limited to them. An entry can have further records. For part of these data: The values listed for one entry are repeats across runs, samples, wells, individuals or studies. What stands in brackets tells the records apart. Letters count within one entry.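 The concentration for full growth arrest is given as TGI.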 For part of these data: A record mostly stands for its own series of concentrations, which the source does not state; some values may only mark the edge of a range.

How the values were obtained:
Assay in all cases: DTP human tumour cell line panel, 48 h
IGROV1 ovarian = tested on: IGROV1 ovarian
LOX IMVI melanoma = tested on: LOX IMVI melanoma
SK-MEL-28 melanoma = tested on: SK-MEL-28 melanoma
TK-10 renal = tested on: TK-10 renal
SF-295 CNS = tested on: SF-295 CNS
DU-145 prostate = tested on: DU-145 prostate
ACHN renal = tested on: ACHN renal
KM12 colon = tested on: KM12 colon
CCRF-CEM leukemia = tested on: CCRF-CEM leukemia
NCI-H226 lung = tested on: NCI-H226 lung
U251 CNS = tested on: U251 CNS
NCI-H522 lung = tested on: NCI-H522 lung
OVCAR-8 ovarian = tested on: OVCAR-8 ovarian
SN12C renal = tested on: SN12C renal
SK-OV-3 ovarian = tested on: SK-OV-3 ovarian
A498 renal = tested on: A498 renal
T-47D breast = tested on: T-47D breast
HOP-92 NSCLC = tested on: HOP-92 NSCLC

O=C(NC[C@H](O)CO)c1ccncc1Nc1ccc(I)cc1F
GI50 (IGROV1 ovarian): 86.7 nM [sample A, mean of 2 tests] and 1.53 µM [sample B, mean of 2 tests]
GI50 (LOX IMVI melanoma): 435 nM [sample A, mean of 2 tests] and 36 nM [sample B, mean of 2 tests]
TGI (SK-MEL-28 melanoma): 193 nM [sample A, mean of 2 tests] and > 100 µM [sample B, mean of 2 tests]
GI50 (TK-10 renal): 18.3 nM [sample A, mean of 2 tests] and 10.1 µM [sample B, 1 test]

COC(=O)c1cc2ccc(OC(C)=O)c(OC(C)=O)c2cn1
TGI (SF-295 CNS): 7.55 µM and 98.9 µM

NC(=S)N/N=C/c1ncccc1N
TGI (DU-145 prostate): 7.41 µM [sample A] and > 100 µM [sample B]
TGI (ACHN renal): 1.01 µM [sample A] and 14.3 µM [sample B]

COc1ccc(/C=C\c2cc(OC)c(OC)c(OC)c2)cc1OC
TGI (KM12 colon): 507 nM and > 100 µM
TGI (CCRF-CEM leukemia): 40.4 µM and 430 nM
TGI (NCI-H226 lung): 199 nM and 5.87 µM
TGI (U251 CNS): 2.04 µM and > 100 µM
TGI (NCI-H522 lung): 152 nM and 15 µM
TGI (OVCAR-8 ovarian): 1.15 µM and 14.9 µM
TGI (SN12C renal): 2.28 µM and > 100 µM

CCOc1cc2ncc(C#N)c(Nc3ccc(OCc4ccccn4)c(Cl)c3)c2cc1NC(=O)/C=C/CN(C)C
TGI (SK-OV-3 ovarian): 13.5 µM [sample A, 1 test] and 22.8 nM [sample B, mean of 2 tests]
TGI (A498 renal): 27.1 µM [sample A, mean of 2 tests] and 2.24 µM [sample B, mean of 2 tests]
TGI (TK-10 renal): 452 nM [sample A, mean of 2 tests] and > 10 µM [sample B, 1 test]
GI50 (T-47D breast): 723 nM [sample A, mean of 2 tests] and 3.88 nM [sample B, mean of 2 tests]
GI50 (HOP-92 NSCLC): 2.68 µM [sample A, mean of 2 tests] and 233 nM [sample B, mean of 2 tests]

CN(C)c1ccc2nc3ccc(=[N+](C)C)cc-3sc2c1
TGI (CCRF-CEM leukemia): > 100 µM [sample A, mean of 2 tests] and 9.88 µM [sample B, mean of 2 tests]
TGI (OVCAR-8 ovarian): 15 µM [sample A, mean of 2 tests] and 1.44 µM [sample B, mean of 2 tests]
